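Interpolation was linear, between the two tested concentrations surrounding the appropriate level; five concentrations were tested over 48 hours in 96-well plates. At the GI50, growth is halved. TGI is the concentration that stops growth completely.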
Test system: NCI-H322M lung
Assay: NCI tumour cell line growth inhibition, 48 h

Structure (SMILES) | GI50 | TGI
COc1cccc(/C=C/c2nc3ccccc3c(=O)n2CC(=O)Nc2ccccc2)c1 | 11.7 µM | 28.1 µM
CN1CCN(c2ccc(Nc3nc(NCCCNC(=O)c4ccc(F)cc4)c4sccc4n3)cc2)CC1 | 5.87 µM | 18.9 µM

Source: PubChem BioAssay (NCI)
